Self-cleavage data for 56 variants are collected here from the RNAGym collection of RNA variant scans (doi:10.7554/elife.90254).

Sequences and labels used below:
B1: LINE1-mini (parent)
chain: GGCAGAGCUCAACACAGCGUGGCAAAGUGGCUGUGGCUAGACUGCC

The source gives no read counts; variants with many changes may rest on few reads.

Variants of B1 are the subject of the data set. The experiment in a line: self-cleavage, relative activity (ratio to wild type); higher = more cleavage; in vitro, sequencing; the parent is a self-cleaving ribozyme.
GGCAGAGCCCAACAUAGCGUGGCAGAGUGGCUGUGGCUAGACUGCC [U9C C15U A25G]: the self-cleavage amounted to 0.06.
Consider GGCAGAGCCCAACACAUUGUGGCAAAGUGGCUGUGGCUAGACUGCU [U9C G17U C18U C46U], for which the self-cleavage worked out at 0.02.
Regarding GGCAGAGCCCAACACAGCCUGGCAAAGUGGCUGUGGCUAGACUGAC [U9C G19C C45A], the self-cleavage amounted to 0.01.
As for GGCAGAGCCCAACACAGCGUGCCGAAGUGGCUGUGGCUAGACUGUC [U9C G22C A24G C45U], the self-cleavage is 0.02.
The value for GGCAGAGCCCAACACAGCGUGGCAAAGUGGUUGUGGCUAGGCUGCC [U9C C31U A41G] was 0; that for GGCAGAGCCCAACACAGCGUAGCAAAGUGGCUGUGGCGAGACUGGC [U9C G21A U38G C45G] was 0.01; that for GGCAGAGCCCAACACAGCGUGGUAAAGUGGCUGUGGCUAGCCUGCC [U9C C23U A41C] was 0.02.
The value for GGCAGAGCCAAACACAGCAGUGCAAAGUGGCUGUGGCUAGACUGCC [U9C C10A G19A U20G G21U] was 0.01; that for GGCAGAGCCCAACACAUCGUGGCAAAGUGGUUGUGGCUAGACUGCC [U9C G17U C31U] was 0.02.
As to GGCAGAGCCCAACACAGCGUUGCAAAGUGGCUGGGGCUAGACUGCC [U9C G21U U34G], the self-cleavage amounted to 0.18.
The value for GGCAGAGCCCAACACAACGCGGAAAAGUGGCUGUGGCUAGACUGCC [U9C G17A U20C C23A] was 0.02.
The value for GGCAGAGCCCAAUGCAGCGUGCCAAAGUGGCUGUGGCUAGACUGCC [U9C C13U A14G G22C] was 0.02.
For GGCAGAGCCCAAAACAGCGUAGCAAAGUGGCUGUGGCGAGACUGCC [U9C C13A G21A U38G], the self-cleavage is 0.04.
The value for GGCAGAGCCCAAUACAGCGUGGCAAAGUGGCUGAGGCUAGGCUGCC [U9C C13U U34A A41G] was 0; that for GGCAGAGCCCAACACAGCGUGGCAAAGUGGAUUUGGCUAGACUGCC [U9C C31A G33U] was 0.03.
The figure for GGCAGAGCCCAAUACAGCGUGGCAAAGCGGCUGUGGCUAGACUGCC [U9C C13U U28C] is 0.03; for GGCAGAGCCCAACACAGGGUCGCAAAGUGGCGGUGGCUAGACUGCC [U9C C18G G21C U32G] it is 0.01.
The value for GGCAGAGCCCAACACAGCGUGGCAAAGUGGCUGUGGUUAGGCUGCC [U9C C37U A41G] was 0.
On to GGCAGAGCCCAAUACAGCGUGGCAAAGUGGCUGUGACUAGACUGCC [U9C C13U G36A], for which the self-cleavage turned out to be 0.01.
Regarding GGCAGAGCCCAACACAGCGUGACAAAGUGGAUGUGGCUAGACUGCA [U9C G22A C31A C46A], the self-cleavage was found to be 0.03.
Take GGCAGAGCCCAACACAGCGUGGAAAAGUGGCUCUGGCUAGACUGCC [U9C C23A G33C]: the self-cleavage stood at 0.03.
The value for GGCAGAGCCUAACUCAGCGGGGCAAAGUGGCUGUGGCUAGAGUGCC [U9C C10U A14U U20G C42G] was 0.02.
The figure for GGCAGAGCCCAACAGAGUGUGGCAAAGUGGCUGUGGCUAGAAUGCC [U9C C15G C18U C42A] is 0.02.
The value for GGCAGAGCCCAACAUAGCGUGGCAAAGUGGCUGUUGCUUGACUGCC [U9C C15U G35U A39U] was 0.01; that for GGCAGAGCCCAACACAGCGUGUCAAAGUGGCUGUGGCUAGUCUGCC [U9C G22U A41U] was 0.06; that for GGCAGAGCCUAACACAGCGUGGCAAAGUGGCUGUGGCUAGGCUGCC [U9C C10U A41G] was 0.02.
As for GGCAGAGCCAAACACAGCGUGGCAAAGUAGCUGUGGCUAGACUGCC [U9C C10A G29A], the self-cleavage is 0.02.
Take GGCAGAGCCCAACACAGUGUGGCAAAGUGGCGAUGGCUUGACUGCC [U9C C18U U32G G33A A39U]: the self-cleavage amounted to 0.01.
Regarding GGCAGAGCCCAACACAGCGUGGAAAAGUCGCUGUGGCUAGACUGCG [U9C C23A G29C C46G], the self-cleavage is 0.
The figure for GGCAGAGCCCAACAGAGCGUGGCACAGUGGAUGUGGCUAGACUUCC [U9C C15G A25C C31A G44U] is 0; for GGCAGAGCCAAACACAGCGUGGCAAAGUGGCUGUGGCGAGACUGCC [U9C C10A U38G] it is 0.02; for GGCAGAGCCCAACACAGCGUGGCAAAAUGGCUCUGGCUAGACUGCC [U9C G27A G33C] it is 0.02.
The value for GGCAGAGCCCAAAACAGCGUGGCAAAGCGGCUGUGGCUAAACUGCC [U9C C13A U28C G40A] was 0.02; that for GGCAGAGCCCAAUACAGCGUGGCAAAGUGUCUGUGGCUAGACUGAC [U9C C13U G30U C45A] was 0.03; that for GGCAGAGCCCAACAAAGCGUGGCUAAGUGGCUGUGGCUAGACUGCC [U9C C15A A24U] was 0.
For GGCAGAGCCAAACACAGCGUGGCAAAGUGGCUGUGGCUAGAGUGCC [U9C C10A C42G], the self-cleavage was found to be 0.03.
For the variant GGCAGAGCCCAAUAGAGCGUAGCAAAGUGGCUGUGGCUAGACUGCC [U9C C13U C15G G21A], the self-cleavage stood at 0.01.
The value for GGCAGAGCCCAACAAGGCGUGGCAAAGUGGCUGUGGCUAGAUUGCC [U9C C15A A16G C42U] was 0; that for GGCAGAGCCCAAGACAUCGUGGCAAAGUGGCUGUGGCUUGACUGCC [U9C C13G G17U A39U] was 0.02.
In the case of GGCAGAGCCCAAGACAGCGUGGCAAAGUGGCUGAGGCUUGACUGCC [U9C C13G U34A A39U], the self-cleavage amounted to 0.04.
For GGCAGAGCCCAACACAGUGUGGCAAAGUGGCUGUGGCUAGAGUGCC [U9C C18U C42G], the self-cleavage was 0.01.
Regarding GGCAGAGCCCAACACACCGUGGCACAGUAGCUGUGGCUAGACUGCA [U9C G17C A25C G29A C46A], the self-cleavage is 0.01.
As to GGCAGAGCCCAAAUCAGCGUGGCAAAGUGGCUGUGGCUAGACUGCC [U9C C13A A14U], the self-cleavage was found to be 0.07.
The value for GGCAGAGCCCAAAACAGCGUGGCAAAGGGGCUGUGGCUAGACUGCC [U9C C13A U28G] was 0.01; that for GGCAGAGCCCAACACAUCGUGGCAAAGUGGCUGUGGCUAAACCGCC [U9C G17U G40A U43C] was 0.02; that for GGCAGAGCCCAAGACAGCGUGGCAAAGUGGCUGUGGCUAGCCUGCC [U9C C13G A41C] was 0.06.
The value for GGCAGAGCCCAACACAGCGUGACAAAGUUGCUGUGGCUAGACUGCC [U9C G22A G29U] was 0.01.
Consider GGCAGAGCCUAUCCCAGCGUGGCAAAUUCGCUGUGGCUAGACUGCC [U9C C10U A12U A14C G27U G29C], for which the self-cleavage turned out to be 0.
The value for GGCAGAGCCCAACACAGCGUCGCUAAGUGGCUGUGGCUAAAUUACC [U9C G21C A24U G40A C42U G44A] was 0; that for GGCAGAGCCCAACACAGCGUGGCAAAGUGGUUGUGGCCAGACUGCC [U9C C31U U38C] was 0.01.
Regarding GGCAGAGCCCAACACAGAUUGGCAAAGUGCCUGUGGCUAGACUACC [U9C C18A G19U G30C G44A], the self-cleavage is 0.01.
GGCAGAGCCCAAGACAGCGUGGCCAAGUGUCUGUGGAUAGACUGCC [U9C C13G A24C G30U C37A]: the self-cleavage came to 0.
The value for GGCAGAGCCCAACAUAGCGUGGCAAAGUGGCAGUGGCUAGACUGCC [U9C C15U U32A] was 0.01.
With GGCAGAGCCCAACACAGUGUGACAAAGUGGCUGUGGCUAGACUGCU [U9C C18U G22A C46U], the self-cleavage stood at 0.03.
Consider GGCAGAGCCCAACACAGCGUGGCAAAGUGGCUGUGGCUAGAUUGCG [U9C C42U C46G], for which the self-cleavage is 0.11.
The figure for GGCAGAGCCCAACACAUCGUGGCAAAGUGGCUGUGUCUAGACUGGC [U9C G17U G36U C45G] is 0.02.
